Assay results from the supplement of paper PMC8728848.
The other results are listed elsewhere or left out.

Legend:
Assay in all cases: glycan array binding signal (z-score within array); higher = stronger binding
Conditions in all cases: glycan notation: IUPAC condensed, linker removed; mutation: G182A
[1] = target: GlcNAc(a1-4)Gal(b1-4)GalNAc
Method in brief: (§1)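 The binding signal is a Z-score computed within each array. Data were drawn from 3228 arrays in the Consortium for Functional Glycomics database, restricted to those with a known protein sequence. Scores were averaged over arrays of the same protein sequence at different concentrations or buffers, and over linkers, and negative values can be taken as non-binding.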

[2] = target: GlcNAc(a1-4)Gal(b1-4)GlcNAc
Method in brief: as §1

[3] = target: GlcNAc(a1-4)Gal(b1-4)GlcNAc(b1-3)Gal(b1-4)Glc
Method in brief: as §1

[4] = target: GlcNAc(a1-4)Gal(b1-4)GlcNAc(b1-3)Gal(b1-4)GlcNAc
Method in brief: as §1

[5] = target: GlcNAc(a1-4)Gal(b1-4)GlcNAc(b1-3)Gal(b1-4)GlcNAc(b1-3)Gal(b1-4)GlcNAc
Method in brief: as §1

[6] = target: GlcNAc(a1-4)Gal(b1-4)GlcNAc(b1-3)Gal(b1-4)[Fuc(a1-3)]GlcNAc(b1-3)Gal(b1-4)[Fuc(a1-3)]GlcNAc
Method in brief: as §1

[7] = target: GlcNAc(a1-6)Gal(b1-4)GlcNAc
Method in brief: as §1

[8] = target: GlcNAc(b1-2)Gal(b1-3)GalNAc
Method in brief: as §1

[9] = target: GlcNAc(b1-2)Man(a1-3)[GlcNAc(b1-2)Man(a1-6)]Man(b1-4)GlcNAc(b1-4)GlcNAc
Method in brief: as §1

[10] = target: GlcNAc(b1-2)Man(a1-3)[GlcNAc(b1-2)Man(a1-6)]Man(b1-4)GlcNAc(b1-4)[Fuc(a1-6)]GlcNAc
Method in brief: as §1

[11] = target: GlcNAc(b1-2)[GlcNAc(b1-4)]Man(a1-3)[GlcNAc(b1-2)Man(a1-6)]Man(b1-4)GlcNAc(b1-4)GlcNAc
Method in brief: as §1

GlcNAc(b1-3)Gal = target: GlcNAc(b1-3)Gal
Method in brief: as §1

[12] = target: GlcNAc(b1-3)Gal(b1-3)GalNAc
Method in brief: as §1

GlcNAc(b1-3)Gal(b1-4)Glc = target: GlcNAc(b1-3)Gal(b1-4)Glc
Method in brief: as §1

[13] = target: GlcNAc(b1-3)Gal(b1-4)GlcNAc
Method in brief: as §1

[14] = target: GlcNAc(b1-3)Gal(b1-4)GlcNAc(b1-3)Gal(b1-4)GlcNAc
Method in brief: as §1

GlcNAc(b1-3)GalNAc = target: GlcNAc(b1-3)GalNAc
Method in brief: as §1

GlcNAc(b1-3)Man = target: GlcNAc(b1-3)Man
Method in brief: as §1

[15] = target: GlcNAc(b1-3)[GlcNAc(b1-4)][GlcNAc(b1-6)]GlcNAc
Method in brief: as §1

[16] = target: GlcNAc(b1-3)[GlcNAc(b1-6)]Gal(b1-4)GlcNAc
Method in brief: as §1

[17] = target: GlcNAc(b1-3)[GlcNAc(b1-6)]GalNAc
Method in brief: as §1

[18] = target: GlcNAc(b1-4)Gal(b1-4)GlcNAc
Method in brief: as §1

GlcNAc(b1-4)GlcNAc = target: GlcNAc(b1-4)GlcNAc
Method in brief: as §1

[19] = target: GlcNAc(b1-4)GlcNAc(b1-4)GlcNAc
Method in brief: as §1

[20] = target: GlcNAc(b1-4)GlcNAc(b1-4)GlcNAc(b1-4)GlcNAc(b1-4)GlcNAc
Method in brief: as §1

[21] = target: GlcNAc(b1-4)GlcNAc(b1-4)GlcNAc(b1-4)GlcNAc(b1-4)GlcNAc(b1-4)GlcNAc
Method in brief: as §1

[22] = target: GlcNAc(b1-4)[GlcNAc(b1-6)]GalNAc
Method in brief: as §1

[23] = target: GlcNAc(b1-6)Gal(b1-4)GlcNAc
Method in brief: as §1

GlcNAc(b1-6)GalNAc = target: GlcNAc(b1-6)GalNAc
Method in brief: as §1

GlcNAc3Prop(b1-4)GlcNAc = target: GlcNAc3Prop(b1-4)GlcNAc
Method in brief: as §1

[24] = target: GlcNAc6S(b1-3)Gal(b1-4)GlcNAc
Method in brief: as §1

Kdn(a2-3)Gal(b1-3)GalNAc = target: Kdn(a2-3)Gal(b1-3)GalNAc
Method in brief: as §1

Kdn(a2-3)Gal(b1-3)GlcNAc = target: Kdn(a2-3)Gal(b1-3)GlcNAc
Method in brief: as §1

Kdn(a2-3)Gal(b1-4)Glc = target: Kdn(a2-3)Gal(b1-4)Glc
Method in brief: as §1

Kdn(a2-3)Gal(b1-4)GlcNAc = target: Kdn(a2-3)Gal(b1-4)GlcNAc
Method in brief: as §1

[25] = target: Kdn(a2-3)Gal(b1-4)[Fuc(a1-3)]GlcNAc
Method in brief: as §1

Kdn(a2-6)Gal(b1-4)GlcNAc = target: Kdn(a2-6)Gal(b1-4)GlcNAc
Method in brief: as §1

[26] = target: Man(a1-2)Man(a1-2)Man(a1-3)Man
Method in brief: as §1

[27] = target: Man(a1-2)Man(a1-2)Man(a1-6)[Man(a1-3)]Man
Method in brief: as §1

Man(a1-2)Man(a1-3)Man = target: Man(a1-2)Man(a1-3)Man
Method in brief: as §1

[28] = target: Man(a1-2)Man(a1-3)[Man(a1-2)Man(a1-6)]Man
Method in brief: as §1

[29] = target: Man(a1-2)Man(a1-3)[Man(a1-2)Man(a1-6)]Man(a1-6)[Man(a1-2)Man(a1-2)Man(a1-3)]Man
Method in brief: as §1

[30] = target: Man(a1-2)Man(a1-3)[Man(a1-2)Man(a1-6)]Man(a1-6)[Man(a1-2)Man(a1-2)Man(a1-3)]Man(b1-4)GlcNAc(b1-4)GlcNAc
Method in brief: as §1

[31] = target: Man(a1-2)Man(a1-3)[Man(a1-6)]Man(a1-6)[Man(a1-2)Man(a1-3)]Man(b1-4)GlcNAc(b1-4)GlcNAc
Method in brief: as §1

[32] = target: Man(a1-2)Man(a1-6)[Man(a1-3)]Man(a1-6)[Man(a1-2)Man(a1-2)Man(a1-3)]Man
Method in brief: as §1

B1: Gal 3 (Homo sapiens), P17931 (protein)
chain: MADNFSLHDALSGSGNPNPQGWPGAWGNQPAGAGGYPGASYPGAYPGQAPPGAYPGQAPPGAYHGAPGAYPGAPAPGVYPGPPSGPGAYPSSGQPSAPGAYPATGPYGAPAGPLIVPYNLPLPGGVVPRMLITILGTVKPNANILDFQRGNDVAFHFNPRFNENNRRVIVCNTKLDNNWAREERQSVFPFESGKPFKIQVLVEPDHFKVAVNDAHLLQYNHRVKKLNEISKLGISGDIDLTSASYTMI
glycan array binding signal (z-score) [1]: -0.192
glycan array binding signal (z-score) [2]: -0.189
glycan array binding signal (z-score) [3]: -0.192
glycan array binding signal (z-score) [4]: 1.04
glycan array binding signal (z-score) [5]: 9.32
glycan array binding signal (z-score) [6]: -0.116
glycan array binding signal (z-score) [7]: -0.193
glycan array binding signal (z-score) [8]: -0.168
glycan array binding signal (z-score) [9]: -0.192
glycan array binding signal (z-score) [10]: -0.161
glycan array binding signal (z-score) [11]: -0.189
glycan array binding signal (z-score) (GlcNAc(b1-3)Gal): -0.186
glycan array binding signal (z-score) [12]: -0.182
glycan array binding signal (z-score) (GlcNAc(b1-3)Gal(b1-4)Glc): -0.162
glycan array binding signal (z-score) [13]: -0.19
glycan array binding signal (z-score) [14]: 4.53
glycan array binding signal (z-score) (GlcNAc(b1-3)GalNAc): -0.194
glycan array binding signal (z-score) (GlcNAc(b1-3)Man): -0.152
glycan array binding signal (z-score) [15]: -0.181
glycan array binding signal (z-score) [16]: -0.142
glycan array binding signal (z-score) [17]: -0.171
glycan array binding signal (z-score) [18]: -0.174
glycan array binding signal (z-score) (GlcNAc(b1-4)GlcNAc): -0.192
glycan array binding signal (z-score) [19]: -0.195
glycan array binding signal (z-score) [20]: -0.19
glycan array binding signal (z-score) [21]: -0.192
glycan array binding signal (z-score) [22]: -0.194
glycan array binding signal (z-score) [23]: -0.195
glycan array binding signal (z-score) (GlcNAc(b1-6)GalNAc): -0.185
glycan array binding signal (z-score) (GlcNAc3Prop(b1-4)GlcNAc): -0.182
glycan array binding signal (z-score) [24]: -0.192
glycan array binding signal (z-score) (Kdn(a2-3)Gal(b1-3)GalNAc): -0.188
glycan array binding signal (z-score) (Kdn(a2-3)Gal(b1-3)GlcNAc): -0.167
glycan array binding signal (z-score) (Kdn(a2-3)Gal(b1-4)Glc): -0.177
glycan array binding signal (z-score) (Kdn(a2-3)Gal(b1-4)GlcNAc): -0.198
glycan array binding signal (z-score) [25]: -0.189
glycan array binding signal (z-score) (Kdn(a2-6)Gal(b1-4)GlcNAc): -0.18
glycan array binding signal (z-score) [26]: -0.149
glycan array binding signal (z-score) [27]: -0.194
glycan array binding signal (z-score) (Man(a1-2)Man(a1-3)Man): -0.189
glycan array binding signal (z-score) [28]: -0.189
glycan array binding signal (z-score) [29]: -0.184
glycan array binding signal (z-score) [30]: -0.191
glycan array binding signal (z-score) [31]: -0.19
glycan array binding signal (z-score) [32]: -0.198
